# Test results published in PubChem BioAssay AID588855 (National Center for Advancing Translational Sciences (NCATS), 2011).
# The whole screen tested about 410,000 compounds, of which about 5,000 (1.2%) were called active. Inconclusive results, whose numbers are uncertain, are shown with a selection of clear calls. Calls follow the shape of the dose curve; as a rule, active = well fitted inhibition curve with a large enough effect; inconclusive = small, poorly fitted or top-dose-only effect; inactive = no such curve, though single readings can be large or run the other way. A potency beside an inconclusive call is a rough fit, not a confirmed value.
# Experiment: qHTS for Inhibitors of TGF-b; also: nearly all actives have a fitted effect of over 65% in size
# Settings: HepG2 CAGA-GFP TGF-b/SMAD3 reporter, GFP fluorescence, 18 h, TGF-beta stimulated, 500 pg/mL final; series mostly up to 46.1 µM
# Outline: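 Read-out: total well GFP (ex488/em500-530) summed from mean per-cell fluorescence. Cells: HEPG2 CAGA-GFP, 1% FBS DMEM, 18 h at 37 degrees C with 500 pg/mL final TGF-beta. Unstimulated wells served as the full-inhibition control; stimulated DMSO wells = 0%.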
# Potency is read from the fitted curve at half-maximal effect; tags tell the direction and shape of the fitted curve.
row,Compound,Potency
1,CCN(CC)/[N+]([O-])=N/OCOC(=O)C(C)c1ccc2cc(OC(C)=O)ccc2c1 (configuration not stated),inactive
2,O=C(NCc1nnc(SCC(=O)N2CCOCC2)o1)c1c(F)cccc1F,"inconclusive: 12.6 µM [inhibitor, single point]"
3,Cc1cccc(-c2nnc(NC(=O)c3ccc(Cl)cc3)o2)c1,"inconclusive: 10 µM [inhibitor, partial curve]"
4,Cc1noc(C)c1COC(=O)c1cc(S(=O)(=O)N2CCOCC2)ccc1Cl,inactive
5,Cc1nc(C(F)(F)F)c(C(=O)NC(=O)Nc2ccc(OC(F)(F)F)cc2)s1,"inconclusive: 35.5 µM [inhibitor, single point]"
6,CN1CCc2nc(SCc3ccc(Cl)cc3)c(C#N)c(-c3cccs3)c2C1,"inconclusive: 20 µM [inhibitor, partial curve, poor fit]"
7,O=C(CN1CCN(Cc2ccccc2)CC1)Nc1cccc(S(=O)(=O)N2CCCCCC2)c1,"inconclusive: 0.708 µM [inhibitor, full curve, poor fit]"
8,CCOc1ccccc1-c1nn2c(Cc3ccccc3)nnc2s1,"inconclusive: 3.98 µM [inhibitor, partial curve, poor fit]"
9,Cn1c(N/N=C/c2cccs2)nc2c1c(=O)n(Cc1ccccc1)c(=O)n2C,"inconclusive: 15.8 µM [inhibitor, single point]"
10,CCCc1nnc(NC(=O)CC(C)c2ccccc2)s1 (configuration not stated),"inconclusive: 0.708 µM [inhibitor, partial curve, poor fit]"
11,c1ccc(CNc2nc(NCc3ccccc3)c3sccc3n2)cc1,"inconclusive: 22.4 µM [inhibitor, single point]"
12,COc1cc(NC(=O)Cn2c(=O)n(-c3cccc(C)c3)c(=O)c3c(C)c(C)sc32)cc(OC)c1,inactive
13,C#Cc1ccc([C@H]2C=C(C(=O)N3CCN(Cc4ccc5c(c4)OCO5)CC3)O[C@@H](OCc3ccc(CO)cc3)C2)cc1,"inconclusive: 35.5 µM [inhibitor, single point]"
14,O=C(Nc1ccccc1)c1cc(C2CCCN(C(=O)OCc3ccccc3)C2)on1 (configuration not stated),"inconclusive: 20 µM [inhibitor, single point]"
15,COc1cccc(N2CC(O)Cn3c2nc2c3c(=O)n(CCCc3ccccc3)c(=O)n2C)c1 (configuration not stated),"inconclusive: 11.2 µM [inhibitor, partial curve, poor fit]"
16,COc1ccc(OC)c(-c2cnc(OC(C)(C)C)nc2OC(C)(C)C)c1,"inconclusive: 10 µM [inhibitor, partial curve, poor fit]"
17,CCOc1cccc(/C=C/c2ccc3cccc(O)c3n2)c1O,"inconclusive: 35.5 µM [inhibitor, single point]"
